PubChem BioAssay AID1671189 (National Center for Advancing Translational Sciences (NCATS), 2021)
The whole screen tested about 1,100 compounds, of which about 70 (6%) were called active. Inconclusive results (about 22%) are left out. The call rests on the fitted dose curve; in most records, active means well fitted curve in the direction sought with a large enough effect; inconclusive means small, poorly fitted or top-dose-only effect, or another doubt; inactive means no such curve, though single readings can be large or run the other way. The list shows a part of the results.

The molecules below were run against Polyunsaturated fatty acid lipoxygenase ALOX12 (Homo sapiens) (UniProt P18054) (assay: Confirmatory qHTS assay for inhibitors of human arachidonate 12S-lipoxygenase (ALOX12): Round 2). Conditions: purified human 12-LOX, xylenol orange absorbance; series mostly up to 125 µM; activity change, negative = inhibition: at the top concentration.
UniProt P18054, sequence (P18054 whole entry, looked up): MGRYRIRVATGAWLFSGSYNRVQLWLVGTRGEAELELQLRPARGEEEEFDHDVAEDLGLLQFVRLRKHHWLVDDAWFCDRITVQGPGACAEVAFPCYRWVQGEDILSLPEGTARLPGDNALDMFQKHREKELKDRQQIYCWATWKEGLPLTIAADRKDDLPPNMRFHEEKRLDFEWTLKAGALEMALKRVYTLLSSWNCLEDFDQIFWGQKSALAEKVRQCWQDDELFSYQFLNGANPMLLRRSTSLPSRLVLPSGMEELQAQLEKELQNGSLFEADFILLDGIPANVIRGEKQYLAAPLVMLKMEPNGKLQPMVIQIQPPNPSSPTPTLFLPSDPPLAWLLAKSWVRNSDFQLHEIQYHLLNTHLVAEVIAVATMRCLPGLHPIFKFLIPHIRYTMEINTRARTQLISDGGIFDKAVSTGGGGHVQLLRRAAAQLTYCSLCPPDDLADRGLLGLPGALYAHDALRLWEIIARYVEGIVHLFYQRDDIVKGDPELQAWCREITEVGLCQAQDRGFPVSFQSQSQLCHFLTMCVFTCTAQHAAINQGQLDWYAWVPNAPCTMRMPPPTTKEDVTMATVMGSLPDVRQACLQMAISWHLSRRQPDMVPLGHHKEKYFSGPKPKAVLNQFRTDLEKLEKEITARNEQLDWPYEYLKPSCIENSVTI
How it was run: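 Activity was measured as hydroperoxide formation via ferrous/xylenol orange, taking the 573 nm to 405 nm absorbance ratio. Reaction: 40 uM arachidonic acid, 30 min at room temperature, after 15 min compound preincubation with 150 nM enzyme, pH 7.0 Hepes buffer.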
On the % scale 0 is the no-effect control and ±100 the full control effect; potency means the concentration at half of the fitted maximal effect.

SMILES	activity change, negative = inhibition	Potency
c1ccc2c(c1)COC1(CCNC1)CN2CC1CCCC1 (stereo not drawn)	inactive: -26.7%	–
CCOc1ccc(CN2CCC3(Cc4ccccc4CNC3=O)C2)cc1 (stereo not drawn)	inactive: -18.2%	–
NCc1cccc(-c2cc(C(F)(F)F)ccc2Cl)c1	inactive: -40.7%	–
Clc1ccc(NCCN2CCCC2)cc1	–	active: 90.2 µM
O=C(N1CCOCC1)N1CCn2c(nnc2C2CCNCC2)C1	inactive: -20.9%	–
CC(NC(=O)C1CCN(c2cc(C(F)(F)F)ncn2)CC1)c1ccccc1 (stereo not drawn)	inactive: 5.14% [at 64.5 µM]	–
O=c1n(-c2cccc(Cl)c2)nc2n1CCN([S+](=O)([O-])c1cccs1)C2	inactive: -15.3%	–
CN1CC(=O)N(C2CCCNCC2)Cc2c(NCCCO)ncnc21 (stereo not drawn)	inactive: -12.6%	–
COc1ccc(N(C)C2CN(C(=O)OC(C)(C)C)C2)cc1	inactive: -20.7%	–
C[S+](=O)([O-])N1Cc2ccccc2OC2(CCN(C(=O)c3ccc(N)nc3)CC2)C1	inactive: -11.4%	–
CN(Cc1nc(-c2ccncc2)no1)C1CCC2(CCNCC2)CC1	inactive: -2.66% [at 64.5 µM]	–
CCNc1ncnc2c1CN(C1CCNC1)C(=O)CN2C (stereo not drawn)	inactive: -2.88%	–
CCc1ccc(CN2CCC3(Cc4ccccc4CNC3=O)C2)s1 (stereo not drawn)	inactive: -26%	–
COc1cccc([S+](=O)([O-])N2CC(Oc3ccc(F)c(F)c3)C2)c1	inactive: -5.6%	–
COc1ccccc1C(=O)N1CCC(N2Cc3ccccc3C2=O)CC1	inactive: 0.0305%	–
COc1cccc(CNc2ccc([S+](=O)([O-])Nc3cc4ccccc4s3)cc2)c1O	–	active: 19.3 µM
Cc1o[nH]c(=O)c1CC[C@H](N)C(=O)O	inactive: -7.5%	–
N#Cc1ccccc1CN1CCCC12Cc1ccccc1CNC2=O (stereo not drawn)	inactive: -18.1%	–
COc1cccc(N2C(=O)NC(=NC3CCCC3)C23CCN(CC2CC2)C3)c1 (stereo not drawn)	inactive: -10.4%	–
O=C(c1cc(C2CC2)nc2onc(C3CCCNC3)c12)N1CCC(F)CC1 (stereo not drawn)	inactive: -10.1%	–
O=C(NCc1cccc(F)c1)c1nc2c(o1)CCN(Cc1cc(F)ccc1F)CC2	inactive: 6.15% [at 64.5 µM]	–
NCc1ccc(-c2cccc(O)c2)cc1	inactive: -27.6%	–
COCc1cc(C[C@@H]2CC[C@H](O)[C@@H](CNC(=O)NC(C)C)O2)no1	inactive: -10.6% [at 64.5 µM]	–

SMILES	activity change, negative = inhibition	Potency
CCN(CC)CC(C)NC (stereo not drawn)	inactive: -15.1% [at 343 µM]	–
C=C(CC)CN1CCCC12Cc1ccccc1CNC2=O (stereo not drawn)	inactive: -17.9%	–
Fc1ccc(OC2CN(Cc3ccc(C(F)(F)F)cc3)C2)cc1F	inactive: -5.08%	–
O=C(O)CCCC(=O)N1Cc2ccccc2CC2(CCCN(Cc3ccccn3)C2)C1 (stereo not drawn)	inactive: 7.02%	–
CCOCCCNc1ncnc2c1CN(C1CCNC1)C(=O)CN2C (stereo not drawn)	inactive: -19%	–
CNCCN1C(=O)CC[C@H]2CN(C(=O)c3ccc(Cl)cn3)CC[C@H]21	inactive: -6.14% [at 64.5 µM]	–
Cc1cccc(N2Cc3c(NCCCOC(C)C)ncnc3N(C)CC2=O)c1	inactive: -16%	–
Cc1nc(NCCN2CCC(O)CC2)cc(C2CC(O)C2)n1 (stereo not drawn)	inactive: -1.5% [at 64.5 µM]	–
Cc1oc(-c2cccs2)nc1CN1CCCC(c2ccn[nH]2)C1 (stereo not drawn)	inactive: 14.1% [at 64.5 µM]	–
O=C(c1ccccc1)N1CCCC2(CC(c3cccnc3)=NO2)C1 (stereo not drawn)	inactive: -22.1%	–
CNCc1ccccc1OC(F)(F)F	inactive: -3.02%	–
NCc1ccccc1-c1cc(C(F)(F)F)ccc1Cl	inactive: -6.19%	–
CC1=C[C@@H](CNCC(C)C)[C@H](C(C)C)C[C@H]1Cc1nc2c(C)cccc2[nH]1	inactive: -7.69% [at 64.5 µM]	–
CCC(CO)Nc1ncnc2c1CN(C1CCCNC1)C(=O)CN2C (stereo not drawn)	inactive: -19%	–
O=C(c1cc(C2CC2)nc2c1c(C1CCCN1)nn2-c1ccccc1)N1CCOCC1 (stereo not drawn)	inactive: 0.239%	–
O=Cc1cccc(N2CCN(C(=O)c3ccncc3)CC2=O)c1	inactive: -7.29%	–
OC1(CNc2cc(C(F)(F)F)nc(N3CCCC3)n2)CCCNCC1 (stereo not drawn)	inactive: 0.216% [at 64.5 µM]	–
CC(C)NCCN1CCCC1	inactive: -4.79% [at 343 µM]	–
Fc1ccc(-c2cnc3n2C[C@H](CNCc2ccccc2Cl)OC3)cc1	inactive: -13.5% [at 64.5 µM]	–
Cc1ccccc1Nc1n[nH]c(C(O)c2ccc3c(c2)CCO3)n1 (stereo not drawn)	inactive: 16.1% [at 64.5 µM]	–
O=C1NCc2ccccc2CC12CCCN(CCCc1ccccc1)C2 (stereo not drawn)	inactive: -17.1%	–
NCc1cccc(-c2ccc(F)cc2F)c1	inactive: -12.5%	–
CC[C@@H](Nc1ncnc2c1CN(C1CCCNCC1)C(=O)CN2C)c1ccccc1 (stereo partly drawn)	inactive: -3.89%	–

SMILES	activity change, negative = inhibition	Potency
CC(C)C(=O)N1CCCC2(Cc3ccccc3CN2[S+](=O)([O-])c2ccccc2)C1 (stereo not drawn)	inactive: -28.5%	–
CCOC(=O)C1CC1CN1CCCC2(Cc3ccccc3CNC2=O)C1 (stereo not drawn)	inactive: -27.1%	–
COc1ccc(OC2CN(Cc3cccc4ccccc34)C2)cc1	inactive: -3.44%	–
COc1ccc(F)cc1-c1ccccc1C=O	inactive: -11.1%	–
COc1ccc(CN2CC[C@H](c3nnc(-c4ccccc4)o3)C2)cc1	inactive: 5.7% [at 64.5 µM]	–
O=C(Nc1ccccc1)N1CCC(c2nnc3n2CCNC3)CC1	inactive: -23.8%	–
O=C(c1cc(C2CC2)nc2onc(C3CCCN3)c12)N1CCOCC1 (stereo not drawn)	inactive: -10.3%	–
Cc1ccc(-c2cc(N3CCC(CNC(=O)c4ccc5nc[nH]c5c4)CC3)n[nH]2)cc1	inactive: 1.03% [at 64.5 µM]	–
O=C(NC1CCCC1)c1cc(C2CC2)nc2onc(C3CCCN3)c12 (stereo not drawn)	inactive: 0.298%	–
CN1CC(=O)N(C2CCNCC2)Cc2c1ncnc2N(C)Cc1ccc(F)cc1	inactive: -28.3%	–
COc1ccccc1CNc1ncnc2c1CN(C1CCCNC1)C(=O)CN2C (stereo not drawn)	inactive: -14.6%	–
CCc1nc2c(c(-c3ccc(OC)cc3)n1)CN([S+](=O)([O-])c1c(C)noc1C)CC2	inactive: -26.9%	–
COCC(=O)N1CCN(C)CC1C(=O)N1CCc2nc[nH]c2C1 (stereo not drawn)	inactive: 14.9% [at 64.5 µM]	–
NCc1cccc(-c2ccsc2)c1	inactive: -8.06%	–
COc1ccccc1-c1cccc(CN)c1	inactive: 20.5% [at 233 µM]	–
CN1CC(=O)N(C2CCCNC2)Cc2c(NCCCc3ccccc3)ncnc21 (stereo not drawn)	inactive: -23.2%	–
CC(=O)NCC(=O)N1Cc2ccccc2CC2(CCCN(CC3CCNC3)C2)C1 (stereo not drawn)	inactive: -9.94%	–
CCc1ccc(CN2CCC3(CC2)Cc2ccccc2CNC3=O)s1	inactive: -18.4%	–
CN1CC(=O)N(C2CCCNC2)Cc2c1ncnc2N1CCSCC1 (stereo not drawn)	inactive: -0.186%	–
COc1ccc(-c2cc(C(=O)NC3CC3)c3c(C)nn(-c4ccccc4)c3n2)cc1	inactive: -19.6%	–
CNCc1ccncc1	inactive: -12% [at 233 µM]	–
Cc1ccc2nc(NC(=O)C3CC(=O)N(c4n[nH]c5cccc(F)c45)C3)sc2c1 (stereo not drawn)	inactive: -20% [at 64.5 µM]	–
Cn1cnc(C(=O)N2[C@@H]3CC[C@H]2CC(NC(=O)c2ccncc2)C3)c1 (stereo partly drawn)	inactive: 14% [at 64.5 µM]	–

SMILES	activity change, negative = inhibition	Potency
Fc1ccc(C2Cn3nnc(-c4nc(-c5ccc(F)c(F)c5)no4)c3CO2)cc1 (stereo not drawn)	inactive: 2.23% [at 64.5 µM]	–
O=C1NC2(Cc3ccccc31)CN(C(=O)c1ccc3c(c1)OCO3)C2	inactive: -19.5%	–
OCC1CN(c2ncccn2)CC12CCN(Cc1cccc3[nH]ccc13)CC2 (stereo not drawn)	inactive: -5.1% [at 64.5 µM]	–
Cc1nc(-c2cccc(NC(=O)N[C@H](C)c3onc(C)c3C(=O)O)c2)no1	inactive: -5.34% [at 64.5 µM]	–
COCc1cn(C[C@H]2C[C@@H](NC(=O)Nc3cccnc3)[C@H](O)[C@@H]2O)nn1	inactive: -8.27% [at 64.5 µM]	–
O=C1NC2(Cc3ccccc31)CN(C(=O)c1cccc3c1OC(F)(F)O3)C2	inactive: -9.79%	–
c1ccc(-n2cc(CN3CCCN(Cc4cccs4)CC3)nn2)cc1	inactive: 7.68% [at 64.5 µM]	–
COc1ccc(CN2CCCC23Cc2ccccc2CNC3=O)cc1OC (stereo not drawn)	inactive: -7.9%	–
C=CCn1cc(CN(Cc2ccco2)Cc2cccs2)c(C)n1	–	active: 10 µM
O=C(c1ccc(-c2ncc3cnc(-c4cccc(F)c4)cn23)cc1)N1CC(O)C1	inactive: -28.1% [at 64.5 µM]	–
CN1CC(=O)N(c2ccccc2F)Cc2c(NC3CCNCC3)ncnc21	inactive: -12.6%	–
COc1cccc(N2C(=O)NC(=NC3CCCCC3)C23CCN(CC2CC2)CC3)c1	inactive: -9.03%	–
COc1ccc(-c2cc(C(=O)NCC3CC3)c3c(C4CCNC4)noc3n2)cc1 (stereo not drawn)	inactive: -23%	–
COC(=O)[C@@H]1Cc2ncn(Cc3ccc(OC)cc3)c2CN1CCCc1ccccc1	inactive: 14.5%	–
COc1ccc(-c2nc(C3CC3)nc3c2CCN(C(=O)c2ccc(C(F)(F)F)cc2)CC3)cc1	inactive: -23.3%	–
O=C1CO[C@H]2CN(C3CCC3)C[C@H]2N1Cc1ccc(F)cc1	inactive: 2.06% [at 64.5 µM]	–
NCC(C1CCCCC1)N1CCCC1 (stereo not drawn)	inactive: 3.96% [at 233 µM]	–
CCN1CCCC2(Cc3ccccc3CN(C(=O)c3ccccc3)C2)C1 (stereo not drawn)	inactive: -11.8%	–
CCCC(=O)N1Cc2ccccc2CC2(CCCN(C)C2)C1 (stereo not drawn)	inactive: -21.2%	–
CCC(=O)N1Cc2ccccc2CC2(CCN(Cc3ccncc3)CC2)C1	inactive: 1.87%	–
O=C(N1CCCCC1)N1CCN(c2ccc(Cl)nn2)C(=O)C1	inactive: -27.3%	–
O=Cc1ccc(-c2ccc(F)cc2)cc1	inactive: -27.9% [at 233 µM]	–
Cc1ccc(C(=O)N2CCC(N3Cc4ccccc4C3=O)CC2)cc1	inactive: -0.341%	–

SMILES	activity change, negative = inhibition	Potency
O=C(c1ccccc1F)N1CCn2c(nnc2C2CCNCC2)C1	inactive: -11.9%	–
CN1CCC(C(=O)N2Cc3ccccc3CC3(CCCN(CC4CCNCC4)C3)C2)CC1 (stereo not drawn)	inactive: -15.7%	–
COc1ccccc1C(O)c1nc(Nc2ccc(C(C)C)cc2)n[nH]1 (stereo not drawn)	inactive: 28.8% [at 64.5 µM]	–
Cc1nn2c(c1-c1cccnc1N1CCOCC1)N(CC1CC1)CCC2	inactive: 12.4% [at 64.5 µM]	–
COC(=O)[C@@H]1Cc2nc[nH]c2CN1Cc1ccc(C)cc1	inactive: 43.8% [at 233 µM]	–
Cn1nc(C2CCCN2)c2c(C(=O)NCc3cccs3)cc(C3CC3)nc21 (stereo not drawn)	inactive: -15.3%	–
O=C(c1ccccc1)N1CCCC2(CC(c3cccc(C(F)(F)F)c3)=NO2)C1 (stereo not drawn)	inactive: -21%	–
Cc1cc(C)n(C2CN(c3cc(C4CC(O)C4)nc(C)n3)C2)n1 (stereo not drawn)	inactive: 8.32% [at 64.5 µM]	–
COCCNC(=O)c1cc(C)nc2onc(C3CCNC3)c12 (stereo not drawn)	inactive: -16.4%	–
O=C(c1ccncc1)N1CCCC(c2nnc3n2CCNC3)C1 (stereo not drawn)	inactive: -17.5%	–
O=Cc1ccccc1-c1ccc(OC(F)(F)F)cc1	inactive: -10.5% [at 233 µM]	–
NCc1ccc(-c2ccc(F)cc2)cc1	inactive: 0.628%	–
O=C(Cc1ccccc1)NCc1nnc2n1C(C(=O)O)CC2 (stereo not drawn)	inactive: -14.1%	–
Nc1ccccc1CN1CCCC2(Cc3ccccc3CNC2=O)C1 (stereo not drawn)	inactive: -0.411%	–
NCCC(=O)N1CCC2(CC1)CN(C(=O)Cc1ccc(Cl)cc1)CCO2	inactive: -12.1%	–
CCC(=O)NC(c1ccco1)c1cc(Cl)c2cccnc2c1OC (stereo not drawn)	inactive: 10.7% [at 64.5 µM]	–
CC(C)CN1CCC(c2nc3ccc(F)cc3c(=O)[nH]2)CC1	inactive: -26%	–
O=C(OCC#CCSc1nnc(-c2cccc3ccccc23)o1)c1ccc(F)cc1	inactive: -16.4% [at 64.5 µM]	–
Cn1cc(CN[C@H]2[C@H](O)[C@H](O)C[C@@H]2c2ccccc2)c2ccccc21	inactive: -9.34% [at 64.5 µM]	–
COCCNC(=O)c1cc(C2CC2)nc2onc(C3CCCN3)c12 (stereo not drawn)	inactive: -17.5%	–
Cc1ccc(CN2CCC3(Cc4ccccc4CNC3=O)C2)cc1C (stereo not drawn)	inactive: -25.3%	–
